Laboratory results from the supplement of paper PMC3334620.
Whole data set: some 33,000 sequences, median “E-score (-0.5 to 0.5)” near -0.032, cut for the highest 2% near 0.36. The list shows a part of the results.

Each sequence was assayed against T1, Sko1 (UniProt Q02100) (assay: PBM E-score (8-mer binding enrichment) (E-score (-0.5 to 0.5)); higher = stronger / more preferred TF binding; most listed sequences are background and not binding sites). Settings: protein concentration: 200 nM; construct: GST-full length.
T1 sequence: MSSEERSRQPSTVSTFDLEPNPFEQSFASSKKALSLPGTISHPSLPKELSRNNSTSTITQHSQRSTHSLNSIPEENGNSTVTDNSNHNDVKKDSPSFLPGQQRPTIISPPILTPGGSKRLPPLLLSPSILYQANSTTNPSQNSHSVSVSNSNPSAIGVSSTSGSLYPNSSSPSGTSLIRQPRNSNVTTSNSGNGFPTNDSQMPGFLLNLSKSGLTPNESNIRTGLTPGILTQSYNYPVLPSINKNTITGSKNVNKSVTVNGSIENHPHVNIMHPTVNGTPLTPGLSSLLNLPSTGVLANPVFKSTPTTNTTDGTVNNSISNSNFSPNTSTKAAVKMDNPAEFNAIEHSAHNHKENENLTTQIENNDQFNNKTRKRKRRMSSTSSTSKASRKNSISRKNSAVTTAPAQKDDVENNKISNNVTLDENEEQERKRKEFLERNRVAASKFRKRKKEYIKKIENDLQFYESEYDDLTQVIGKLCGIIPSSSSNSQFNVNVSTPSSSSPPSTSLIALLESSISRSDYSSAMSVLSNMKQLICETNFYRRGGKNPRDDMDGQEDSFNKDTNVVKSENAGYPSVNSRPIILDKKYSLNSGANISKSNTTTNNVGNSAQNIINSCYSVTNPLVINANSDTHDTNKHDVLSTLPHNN
Method: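 Universal 'all 10-mer' protein binding microarrays (Agilent AMADID 015681) probed with GST-tagged S. cerevisiae TFs (full-length or DBD) made by in vitro transcription/translation (PURExpress), about 100-200 nM. Bound TF was detected with fluorescent anti-GST. Each ungapped 8-mer (which stands for itself and its reverse complement) is scored by the PBM enrichment score (E-score), a modified Wilcoxon-Mann-Whitney statistic from -0.5 to +0.5, computed with the Universal PBM Analysis Suite. Scale: above 0.35 generally sequence-specific binding.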

Sequence | PBM E-score
TGGGTACA | -0.0867
TAGCGTGA | 0.0886
CGGCTCGC | 0.0398
CATTGAAG | -0.167
TTAGCGAA | 0.172
CAGCAAAC | -0.039
GATATGTA | 0.137
CCCTACTA | -0.19
CCGACCAC | -0.182
AAATTACT | 0.196
CTGAATTA | 0.17
CTGCTAGC | -0.357
AGCGCAAT | 0.0809
AGATCTTG | -0.175
AACTCTGA | 0.0952
ACTAGGAC | -0.174
GAAAGTGA | 0.215
AACCAGAA | 0.0649
CTGCACTA | 0.0142
AGGCATAA | -0.198
CAATATAG | -0.00127
CAGAAAGC | 0.129
GGTTTAAA | 0.138
ACGTCGAA | 0.292
AAGTCCGT | -0.183

Sequence | PBM E-score
GTGCACAA | -0.0832
ATGGTCGG | -0.186
AGTACCGC | -0.0783
ATTGTCTG | 0.022
CTGGGGAA | -0.214
TAATTGTA | 0.208
AGAACCTC | -0.277
CCGTAGCG | -0.239
ATCATCAC | 0.334
ACACCGTA | -0.0828
ACTTCGCA | 0.192
CAGGTAGC | -0.301
CCTCATCC | -0.292
TCAAGTGA | 0.087
CTACGGGC | -0.281
CAATGCGC | 0.159
TGGGAAAA | 0.00787
TCTCAGAA | 0.0658
AAGCATTA | 0.0399
AATATTGA | 0.181
CCCTACCC | -0.0678
GACGTGCA | 0.389
AGGCCTCG | -0.362
AATATTCG | 0.243
AGATGACT | -0.0299

Sequence | PBM E-score
GCAAACGC | 0.088
ATGCTCCA | -0.253
GAATTCGC | -0.0681
AAAAGAGG | -0.184
CGACGCCG | -0.0938
GACGTATC | 0.422
CAATCTCG | -0.137
AAGGACGA | -0.0948
ACCGACAC | -0.108
ACCGGGCC | -0.157
AGGTATAC | 0.11
GCTTTGAC | 0.113
TAGTAGGA | -0.11
TCCAACAA | 0.0795
ACTAACAA | -0.0482
CTCCATTA | -0.0268
AAGGTGAT | 0.0841
CGTGCCAG | -0.101
AGGCAGCA | -0.0239
ACCACAAA | 0.0563
CCTTAGAC | -0.043
AATATAAT | 0.0933
CCGACGAC | 0.00622
ATCGTCCC | -0.0614
AAGCGTCG | -0.0102

Sequence | PBM E-score
GTTGCCGA | 0.0716
CCCTCCAG | -0.445
AACCTCGC | -0.147
GACCGAGA | -0.156
CCTACGCA | 0.361
CGTCTTCC | 0.0924
GCCATCAA | -0.0252
TAACTTGA | 0.0943
AGCCTACT | -0.072
AGTCGCTC | 0.0147
ACTTCTGG | -0.188
ATCTGAAC | -0.00514
CAGCATTC | -0.0939
CATGACAC | 0.258
CGATGCTA | -0.104
CCCTAAGC | -0.294
CGTGCGCA | 0.205
CAGGGTGA | -0.0395
CAAGTCTG | -0.135
CCAACATA | 0.0619
CGTCTACA | 0.0862
AACGGATG | -0.0941
TGGCCGAA | -0.00295
GTTCGGTA | -0.0838
CTCTCATA | -0.148

Sequence | PBM E-score
GTTACATA | 0.251
ACTTTGTG | -0.00432
GCCTGCAC | -0.131
ACGCGGGA | -0.129
ACCAAATA | 0.163
CGCCACGA | 0.0632
AGTATGCC | -0.147
CATGGATC | -0.269
CTAGCTCA | -0.0524
AGGAGCAA | -0.156
CTGGTCGA | -0.323
GATAGTTA | 0.128
AATTCGAA | 0.134
ACGGTTTC | -0.187
ACGTCTCA | 0.314
GCACATAC | -0.0289
CACGTGAG | 0.344
CCGCAAAG | -0.149
GCCCGATA | -0.0728
CGTAGTAA | 0.253
AATGCGAT | -0.0641
ACAGACGA | 0.0134
AATCCAGG | -0.0918
TCCGAGCA | 0.021
AAGATATG | 0.224

Sequence | PBM E-score
GAAGGCAA | 0.0281
CCAAAGGC | -0.154
ACCTAGCA | -0.0426
ACGTCAGC | 0.48
AGCCAATC | -0.0842
GCTATGAC | 0.364
CCGTCACG | 0.152
GAGTGGAA | -0.00763
AGGGCCAA | -0.284
TGATTGCA | 0.0949
ACCCGCAC | -0.12
CAGGGATC | -0.342
GACAAATA | 0.252
AGGACTCG | -0.205
CAGACGGG | -0.395
AGGATTGC | -0.131
AAATCCCG | -0.0636
CGCCGCTC | -0.232
ATGATATC | 0.189
CCCCACGC | -0.22
ATGAGCCA | 0.0374
CCCGCCTA | -0.0413
GGATTAAC | 0.00022
AAGCCCGA | -0.0428
AATAAGAC | 0.101

Sequence | PBM E-score
CGTCTAGC | 0.132
ATCGACCA | -0.165
CGAGAATC | -0.014
ACACAATC | 0.216
TGTCAGAA | 0.0969
ACGTTGAA | 0.245
ATGCAACC | -0.0774
GCTACAAA | 0.0814
CACTATTC | 0.0287
CATGCACG | 0.149
AAGGATGA | -0.0165
AAGTTCGG | -0.128
CTGGACCA | -0.0832
AAGAGATG | 0.0402
GGTGCCAA | -0.105
ACACTTGG | -0.196
ATCGGCTC | -0.0184
ACTTCGAG | -0.0142
AGAATTCC | -0.198
GACCTTGA | -0.0893
AGACGTTA | 0.283
AGGTAGGG | -0.137
